Measurements as given in article PMC13083723 (Patterns, 2026).
In all, about 5,400 compounds went through this assay and about 190 (3.5%) showed an effect of 50% or more. This is one part of the list.

test system: Vero-E6; assay: primary screen, phospholipidosis by LipidTOX staining; higher = more effect of the substance; settings: 10 µM
In short: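 Single-concentration screen at 10 μM, with DMSO 0.1 v/v % and amiodarone 10 μM as controls. Read-out is LipidTOX Red phospholipid staining, which tolerates aldehyde fixation, in Vero-E6 cells.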

SMILES	result_ITMP
COc1ccc(-c2nc3cc(C4=NNC(=O)CC4C)ccc3[nH]2)cc1 (centres unmarked)	0.03%
CCCn1c(=O)[nH]c2nc(-c3ccc(S(=O)(=O)N4CCN(c5ccc(Cl)cc5)CC4)cc3)[nH]c2c1=O	-1.38%
NCC(=O)Nc1ccc(-n2nc(C(F)(F)F)cc2-c2ccc3c(ccc4ccccc43)c2)cc1	38.8%
CO[C@H]1C[C@H](O[C@H]2CC[C@@]3(C)[C@H](CC[C@@H]4[C@@H]3CC[C@]3(C)[C@@H](C5=CC(=O)OC5)[C@@H](OC(C)=O)C[C@]43O)C2)O[C@@H](C)[C@@H]1O	-2.23%
COc1ccc(-c2cnc3c(-c4cccc5ncccc45)cnn3c2)cc1	-5.17%
NS(=O)(=O)c1cc2c(cc1Cl)N=CNS2(=O)=O	-0.42%
COc1ccccc1CC(=N)N1C[C@@H]2C(=O)CCC(c3ccccc3)(c3ccccc3)[C@@H]2C1	-1.05%
CNC(=O)[C@@H](Cc1ccccc1)N(C)C(=O)[C@@H](Cc1ccc2ccccc2c1)N(C)C(=O)/C=C/CC(C)(C)N	4.05%
COc1nccc(-c2c(-c3ccc(F)cc3)ncn2[C@H]2CC[C@H](O)CC2)n1	-2.01%
CNS(=O)(=O)Cc1ccc2[nH]cc(CCN(C)C)c2c1	-1.88%
O=c1c(O)c(-c2ccc(O)c(O)c2)oc2cc(O)ccc12	-3.47%
COc1c(C)cnc(Cn2cc(C#CCC(C)(C)O)c3c(Cl)nc(N)nc32)c1C	-0.95%
COc1cc2ncnc(Oc3cccc(NC(=O)Nc4cc(C(C)(C)C(F)(F)F)on4)c3)c2cc1OC	-6.16%
N[C@@]1(C(=O)O)CC[C@H]2[C@H](C(=O)O)[C@H]21	-2.09%
O=C(CCCl)NCc1ccccc1	2.06%
Cc1cccc(/C=N/Nc2cc(N3CCOCC3)n3nc(-c4ccncc4)cc3n2)c1	-0.73%
OC(c1ccccc1)(c1ccccc1)C1CCNCC1	23.1%
CC[C@@]1(O)C(=O)OCc2c1cc1n(c2=O)Cc2c-1nc1cc(F)c(C)c3c1c2[C@@H](N)CC3	35.9%
CCCOc1ccc2c(c1)CC[C@@H]1[C@@H]2CC[C@]2(C)[C@@H](OC)CC[C@@H]12	-0.32%
OCCNC1CCCc2c1[nH]c1ccc(-c3ccccc3)cc21 (centres unmarked)	89.4%
O=C(Nc1ccc(S(=O)(=O)Nc2nccs2)cc1)C(c1ccccc1)c1ccccc1	-1.38%
O=C1c2ccccc2-c2c(NCCc3ccccc3)c(=O)[nH]c3cccc1c23	1.78%
O=C(CCCCCCC(=O)NO)NO	-1.26%
C[C@]12CCC(=O)C=C1CCC1C2CC[C@@]2(C)C1CC[C@@H]2O (some centres unmarked)	2.46%
COc1ccccc1C(=O)Nc1cccc(NC(=O)c2cccc(C)c2)c1	-8.43%
FC(F)(F)c1ccc(CNc2ccc(Cc3c[nH]c4ncc(Cl)cc34)cn2)cn1	-2.48%

SMILES	result_ITMP
Cn1c(=O)c2[nH]cnc2n(C)c1=O	-6.01%
CCC/C=C1\OC(=O)C2=C1CCC=C2	-5.44%
CCN1C(C)(C)CC(Oc2ccc(C(=O)Nc3ccc(NC(=O)Nc4cc(C(C)(C)C)on4)cc3)nc2)CC1(C)C	1.64%
CS(=O)(=O)c1ccc(C2=C(c3ccccc3)C(=O)OC2)cc1	-2.07%
Oc1ccc(Cl)c2c1CCC2	-3.76%
COc1ccc(N(C)c2nc(C)nc3ccccc23)cc1	-0.74%
CSCC[C@H](NC(=O)[C@H](CC(C)C)NC(=O)CNC(=O)[C@H](Cc1ccccc1)NC(=O)[C@H](Cc1ccccc1)NC(=O)[C@H](CCC(N)=O)NC(=O)[C@H](CCC(N)=O)NC(=O)[C@@H]1CCCN1C(=O)[C@H](CCCCN)NC(=O)[C@@H]1CCCN1C(=O)[C@@H](N)CCCNC(=N)N)C(N)=O	-6.88%
CC(=O)c1cc([N+](=O)[O-])c(Sc2cccc(Cl)c2Cl)s1	-7.01%
C#C[C@]1(O)CC[C@H]2[C@@H]3CCc4cc(OC5CCCC5)ccc4[C@H]3CC[C@@]21C	0.64%
CN(C)CCC=C1c2ccccc2CCc2ccccc21	39.7%
Cc1ccnc2c1NC(=O)c1cccnc1N2C1CC1	-1.9%
N#Cc1c[nH]c2c(C(=O)N3CCN(CCc4ccc(F)cc4)CC3)cccc12	2.35%
CC(C)[C@H](CO)Nc1nc(Nc2cccc(Cl)c2)c2ncn(C(C)C)c2n1	-0.71%
Cc1[nH]c(=O)c(C#N)cc1-c1ccncc1	-1.45%
NC(=O)OCCCc1ccccc1	-6.09%
O=C(c1ccc2nccnc2c1)N1CCCCC1	-1.43%
C[C@H]1CC[C@H](n2c3cnccc3c3cnc(Nc4ccc5c(n4)CCN(C(=O)CO)C5)nc32)CC1	-2.27%
CCN(CC)CCOC(=O)C1(c2ccccc2)CCCC1	2.32%
NC(N)=NCCNS(=O)(=O)c1cccc2cnccc12	-3.17%
COCc1nc2c(=O)n(C)c(=O)n(CC(C)C)c2[nH]1	-0.95%
C[C@H]1CC2C3CCC4=CC(=O)C=C[C@]4(C)[C@@]3(F)[C@@H](O)C[C@]2(C)[C@@]1(O)C(=O)CO (some centres unmarked)	2.45%
CC(C)C(=O)OC[C@H]1O[C@@H](n2ccc(N)nc2=O)[C@](C)(F)[C@@H]1OC(=O)C(C)C	-2.66%
C=CCN1CCN(c2nc3ccccc3nc2C#N)CC1	0.77%
Cc1c(C(N)=O)cc([N+](=O)[O-])cc1[N+](=O)[O-]	-13.1%
CC(=O)O[C@]1(C(C)=O)CC[C@H]2[C@@H]3CCC4=CC(=O)CC[C@]4(C)[C@H]3CC[C@@]21C	-3.89%
CNC(=O)[C@H]1O[C@@H](n2cnc3c(NCc4cccc(I)c4)ncnc32)[C@H](O)[C@@H]1O	-1.53%

SMILES	result_ITMP
NC(C(=O)O)c1ccc(C(=O)O)c(O)c1 (racemic)	9.69%
NC(=O)N1c2ccccc2CC(O)c2ccccc21 (centres unmarked)	-1.17%
Cc1cccc(C)c1NC(=O)C1CCCCN1C (centres unmarked)	1%
COc1ccc(C2C(=O)c3ccccc3C2=O)cc1	-7.25%
Cc1nnc(SCC2=C(C(=O)[O-])N3C(=O)[C@@H](NC(=O)Cn4cnnn4)[C@H]3SC2)s1	-0.51%
O=C(c1ccccn1)c1cnn2c(-c3ccncc3)ccnc12	0.82%
N#Cc1ccc2[nH]cc(CCCCN3CCN(c4ccc5oc(C(N)=O)cc5c4)CC3)c2c1	12.9%
CN1C(C(=O)Nc2ccccn2)=C(O)c2sccc2S1(=O)=O	-7.11%
COc1cc(/C=C2\CCC/C(=C\c3ccc(O)c(OC)c3)C2=O)ccc1O	-5.15%
Cc1cccn2c(=O)c(-c3nn[n-]n3)cnc12	-2.44%
Cc1ncc([N+](=O)[O-])n1CC(O)CCl (centres unmarked)	12.3%
C=CC(=O)c1ccc2ccccc2c1	-1.21%
C=CCOc1ccc(CC(=O)O)cc1Cl	-0.67%
N=C(NCc1ccc(Cl)cc1)SCCCc1c[nH]cn1	17.5%
COC(=O)C1=C(C)NC(C)=C(C(=O)O[C@H]2CCN(Cc3ccccc3)C2)[C@H]1c1cccc([N+](=O)[O-])c1	21.2%
CNC(=O)N(C)N=O	-2.57%
CC(C)(C)c1ccc(CN2CCN(C(c3ccccc3)c3ccc(Cl)cc3)CC2)cc1 (centres unmarked)	1.77%
Cc1cc(N2CCCCC2)nc2ccccc12	-2.64%
C[C@@H](c1ccc2nccn2c1)n1nnc2ncc(-c3cnn(C)c3)nc21	-1.11%
COc1ccc2c(c1)C=C1Cn3c-2c(C2CCCCC2)c2ccc(cc23)C(=O)NS(=O)(=O)N(C)CCOCCN(C)C1=O	-1.79%
COc1cc2c(cc1OC)C(=O)C(CC1CCN(Cc3ccccc3)CC1)C2 (centres unmarked)	-1.55%
COc1ccc(S(=O)(=O)Nc2nc(-c3cccc([N+](=O)[O-])c3)cs2)cc1OC	-5.47%
Cc1cc(-c2nc3cc(F)ccc3s2)ccc1NC(=O)[C@@H](N)CCCCN	0.55%
O=C(CCCN1CCC(O)(c2ccc(Br)cc2)CC1)c1ccc(F)cc1	14.8%
C[C@@H](Oc1cc(-n2cnc3ccc(CN4CCN(C)CC4)cc32)sc1C(N)=O)c1ccccc1C(F)(F)F	75.1%
CNCC[C@H](Oc1cccc2ccccc12)c1cccs1	92.6%

SMILES	result_ITMP
COc1cc(OC)c(OC)cc1C=O	-1.77%
C[N+]1(C)CCCC(OC(=O)C(O)(c2ccccc2)c2ccccc2)C1 (centres unmarked)	-2.52%
Cc1cccc(C(C)c2cnc[nH]2)c1C (centres unmarked)	9.89%
OCCCNc1ccccc1	-4.73%
CC1(C)CCC[C@]2(C)[C@H]3CC(=O)O[C@]3(C)CC[C@@H]12	1.48%
CC(=O)c1ccc2c(c1)N(CCCN1CCC(CCO)CC1)c1ccccc1S2	50.4%
N#Cc1cn([C@@H]2O[C@H](CO)[C@@H](O)[C@H]2O)c2ncnc(N)c12	8.12%
CC1(COc2ccc3c(c2)ncn3-c2ccc3cccc(N4CCC(N)CC4)c3n2)COC1	64.2%
O=C(O)CCc1c[nH]c2ccccc12	-10.1%
CC1(C)O[C@H]2CC(=O)OC[C@]23[C@H]2CC[C@@]4(C)[C@H](c5ccoc5)OC(=O)[C@H]5O[C@]54[C@]2(C)C(=O)C[C@@H]13	-6.19%
COc1cc(Cc2cnc(N)nc2N)cc(OC)c1OC	-2.94%
NC(=O)[C@H]1CCS[C@@H]2C[C@]3(CCCN3C(=O)Cc3ccc(NC(=O)COc4ccc(Cl)cc4Cl)cc3)C(=O)N12	-1.66%
COc1cc2c(cc1OC)CN(CCc1ccc(NC(=O)c3cc(OC)c(OC)cc3NC(=O)c3cnc4ccccc4c3)cc1)CC2	-3.35%
CCOc1nc2cccc(C(=O)OCc3oc(=O)oc3C)c2n1Cc1ccc(-c2ccccc2-c2noc([O-])n2)cc1	5.04%
COc1cc(N)c(Cl)cc1C(=O)NC1CN2CCC1CC2 (centres unmarked)	-9.6%
CN(C(=O)c1ccc(F)cc1C(F)(F)F)C1CCN(c2nnc(-c3ccnn3C)c3ccccc23)CC1	-2.91%
COc1ccccc1C1(O)CCN(CCCn2c3ccccc3c3ccccc32)CC1	52.4%
C[C@H]1[C@H](OC(=O)CCC(=O)O)O[C@@H]2O[C@@]3(C)CC[C@H]4[C@H](C)CC[C@@H]1[C@@]24OO3	7.77%
C[C@H](NC(=O)[C@@H](N)Cc1ccc(O)cc1)C(=O)NCC(=O)N(C)[C@@H](Cc1ccccc1)C(=O)N[C@H](CO)CCS(C)=O (some centres unmarked)	1.17%
CC(=O)C(=O)[O-]	-8.52%
CCN(CC)CCOC(=O)C(c1ccccc1)C1CCCCC1 (centres unmarked)	52%
COc1ccc([C@H]2CNC(=O)C2)cc1OC1CCCC1	-3.42%
Clc1ccc(C(c2ccc(Cl)cc2)C(Cl)(Cl)Cl)cc1	-2.17%
